{
  "source": "ChEMBL document CHEMBL4888484",
  "about": "“Replenishing the malaria drug discovery pipeline: Screening and hit evaluation of the MMV Hit Generation Library 1 (HGL1) against asexual blood stage Plasmodium falciparum ,using a nano luciferase reporter read-out” (2022)",
  "note": "Screen size: about 150,000 compounds; about 540 (0.36%) showed an effect of 50% or more. Some of the results follow.",
  "data": [
    {"tested_on": "Plasmodium falciparum", "assay": "Primary screen in NF54 nanoGlo assay, in single point, at 2uM, 72h; a lower Z score goes with more inhibition", "assay_type": "functional, Erythrocyte", "conditions": "timepoint 72 hour", "units": {"% Inhibition": "%"}, "values": [
      {"smiles": "CC[C@H](C)CC(=O)OCCOc1nn(C)c(N)c1C(=O)OC", "% Inhibition": 10, "Z score": -1.57},
      {"smiles": "Cc1cccc(CN2CCCn3nc(C(=O)NC4CCCC4)cc3C2=O)c1", "% Inhibition": -7, "Z score": 1.39},
      {"smiles": "O=C1N[C@H]2C[C@@H](C(=O)NC[C@H]3O[C@H](CCOc4cc(C5CCCC5)ccc41)CC[C@@H]3O)N(C1Cc3ccccc3C1)C2", "% Inhibition": -7, "Z score": 1.06},
      {"smiles": "Cc1nc(N2CCN(C)CC2)cc(N2CCN(C(=O)C3CCCC3)CC2)n1", "% Inhibition": -24, "Z score": 2.11},
      {"smiles": "Cc1nn(S(=O)(=O)N2CCC(C)CC2)c(C)c1Br", "% Inhibition": -34, "Z score": 4},
      {"smiles": "Cc1ccc2[nH]c3c(c2c1)CN(C)CCC3", "% Inhibition": 4, "Z score": -0.52},
      {"smiles": "CN1C[C@H](CNC(=O)Cc2ccsc2)OCC1=O", "% Inhibition": -8, "Z score": 1.51},
      {"smiles": "CCOc1c(Br)cc(Br)cc1CNCC(=O)N1CCCC1", "% Inhibition": 5, "Z score": -0.94},
      {"smiles": "Cc1ccc(CN(Cc2ccncc2)C(=O)[C@@H]2CCCCCN2C)s1", "% Inhibition": -7, "Z score": 1.32},
      {"smiles": "CC(=O)N1CCC(CC(=O)NCCCc2nc(C)no2)(N2Cc3ccccc3C2=O)CC1", "% Inhibition": -16, "Z score": 2.28},
      {"smiles": "Cc1ncsc1C(=O)N1CCC(CNC(=O)c2cnn(C)c2)CC1", "% Inhibition": -12, "Z score": 1.76},
      {"smiles": "CCN1CCN(c2ncc(N3CCC(C(=O)NCC4CC4)CC3)cn2)CC1", "% Inhibition": 3, "Z score": -0.44},
      {"smiles": "Cc1cnn(CC(C)NC(=O)N2CCCC2CCO)c1", "note": "(centres undefined)", "% Inhibition": 2, "Z score": -0.35},
      {"smiles": "COc1cccc(C2c3[nH]c4ccccc4c3C[C@H]3C(=O)N(C4CCN(Cc5ccccc5)CC4)CC(=O)N23)c1", "note": "(some centres undefined)", "% Inhibition": 15, "Z score": -1.95},
      {"smiles": "Cc1ccc(Cl)cc1C(=O)N[C@H]1C[C@H]2C(=O)NCC(=O)N2C1", "% Inhibition": -13, "Z score": 1.92},
      {"smiles": "CC(C)c1nccc(CN(Cc2cocn2)Cc2cocn2)n1", "% Inhibition": -11, "Z score": 2.03},
      {"smiles": "Cc1nc(N2CCN(C/C=C/c3ccccc3)CC2)c2c(C)noc2n1", "% Inhibition": -12, "Z score": 2.21},
      {"smiles": "Nc1nc2cc(C(F)(F)C(F)(F)F)ccc2[nH]1", "% Inhibition": 2, "Z score": -0.28},
      {"smiles": "C[C@@H]1C[C@@H](NC(=O)C2(C#N)CCC2)c2ccccc2O1", "% Inhibition": -9, "Z score": 1.49},
      {"smiles": "O=S(=O)(NCc1ccc2[nH]c3c(c2c1)CCCCCC3)N1CCOCC1", "% Inhibition": -4, "Z score": 0.51},
      {"smiles": "CC(=O)N1CCC(N2CCOC[C@H]2c2nc(-c3ccc(F)cc3)c[nH]2)CC1", "% Inhibition": 5, "Z score": -0.79},
      {"smiles": "Cc1c(C(=O)N2CCC(c3nc(N(C)C)no3)CC2)ccn1C", "% Inhibition": -9, "Z score": 1.05},
      {"smiles": "Cc1noc(C)c1S(=O)(=O)NC[C@H](O)c1ccoc1", "% Inhibition": -5, "Z score": 0.77},
      {"smiles": "CN1CCC(O)(C(=O)N[C@H]2CCCC[C@@H]2c2ccccc2)CC1", "% Inhibition": 4, "Z score": -0.62},
      {"smiles": "O=C([C@@H]1CC(c2ccc(Cl)cc2Cl)=NO1)N1CCC1", "% Inhibition": -13, "Z score": 2.02},
      {"smiles": "CC1CCCN(c2nccc(N3Cc4ccccc4C3)n2)C1CN", "note": "(centres undefined)", "% Inhibition": -2, "Z score": 0.3},
      {"smiles": "Cc1noc2cc(NS(=O)(=O)N3CCCC3)ccc12", "% Inhibition": -10, "Z score": 1.33},
      {"smiles": "NC(=O)C[C@H]1CCN(C(=O)C2(c3cccc(Br)c3)CCCCC2)C1", "% Inhibition": 6, "Z score": -0.66},
      {"smiles": "CCCCN(CC(F)(F)F)C(=O)Nc1cn[nH]c1", "% Inhibition": 0, "Z score": 0.05},
      {"smiles": "O=C(NCC1(Cc2ccccc2)CCC1)C1CC2CCC1O2", "note": "(centres undefined)", "% Inhibition": -9, "Z score": 1.38},
      {"smiles": "O=C1NCCCC[C@@H]1N(Cc1cccc(OCCc2ccsc2)c1)C(=O)C1CCCCC1", "% Inhibition": -19, "Z score": 2.55},
      {"smiles": "Cc1nc(C(=O)NC2(c3ccccc3)CCOCC2)cs1", "% Inhibition": -1, "Z score": 0.14},
      {"smiles": "CCn1cc(CN2C[C@H]3C[C@H](C2)[C@@H]2CCCC(=O)N2C3)cc1C#N", "% Inhibition": 6, "Z score": -1.3},
      {"smiles": "O=C(CN(C[C@H]1CCCO1)C(=O)Nc1ccccc1C(F)(F)F)N(Cc1ccc(F)cc1)Cc1cccs1", "% Inhibition": -5, "Z score": 0.6},
      {"smiles": "Cc1c(C(=O)N[C@@H](CO)C2CCC2)c2ccccc2n(C)c1=O", "% Inhibition": -17, "Z score": 2.03},
      {"smiles": "O=C(CN(CC1(O)CCCC1)CC1(O)CCCC1)NC1CCCC1", "% Inhibition": 1, "Z score": -0.17},
      {"smiles": "Cc1nn(C)cc1C(=O)N1CCC[C@H](N(C)C(=O)c2cnc(C)n2C)C1", "% Inhibition": 2, "Z score": -0.38},
      {"smiles": "COc1ccc(-c2nc(CN3CCN[C@@H](C)C3)c(C)o2)c2ccccc12", "% Inhibition": -2, "Z score": 0.29},
      {"smiles": "Cc1ccc(C(=O)N2CCCCC2)cc1NC(=O)c1nsc2ccccc12", "% Inhibition": -10, "Z score": 1.71},
      {"smiles": "CC1Cc2nn(-c3ccccc3)c(-c3ccc(N(C)C)cc3)c2C(=O)C1C", "note": "(centres undefined)", "% Inhibition": -20, "Z score": 2.64},
      {"smiles": "O=C1C[C@H](C(=O)N(Cc2cnn(-c3ccccc3)c2)C2CC2)CN1Cc1ccccn1", "% Inhibition": -2, "Z score": 0.4},
      {"smiles": "O=C(CN1CCC(C(F)(F)F)CC1)N1CCC[C@H](CN2CCOCC2)C1", "% Inhibition": -30, "Z score": 3.54},
      {"smiles": "CCn1cc(OCc2noc(-c3cccs3)n2)cn1", "% Inhibition": 32, "Z score": -3.56},
      {"smiles": "CCc1ccc(S(=O)(=O)N2CCC3(CC2)C[C@@H]3NC(=O)C(C)C)cc1", "% Inhibition": 2, "Z score": -0.29},
      {"smiles": "Cn1nccc1CS(=O)(=O)Cc1cccc2ccccc12", "% Inhibition": 4, "Z score": -0.59},
      {"smiles": "Cc1cc(Cl)c(C(=O)N(C)CCN2CCOC2=O)cc1C", "% Inhibition": 5, "Z score": -0.41},
      {"smiles": "O=C(NC1CCCCC1)N[C@H]1C[C@@H]1c1ccccc1", "% Inhibition": 8, "Z score": -1.21},
      {"smiles": "COc1cccc(C(=O)N2CCN(c3cc([C@H]4C[C@@H](O)C4)ncn3)CC2)c1", "% Inhibition": -6, "Z score": 0.85},
      {"smiles": "CCCN1C[C@@H](c2noc(C3(c4cc(F)cc(F)c4)CCCC3)n2)CC1=O", "% Inhibition": 17, "Z score": -2.15},
      {"smiles": "COc1ccc(-c2cnc3ncnn3c2N2CCN(S(=O)(=O)c3ccc(F)cc3F)CC2)cc1", "% Inhibition": -3, "Z score": 0.35},
      {"smiles": "COCC1CCCN(C(=O)C2CCCN(C(=O)NC3CCCC3)C2)CC1", "note": "(centres undefined)", "% Inhibition": -8, "Z score": 1.08},
      {"smiles": "C[C@](O)(CNC(=O)NC1CCCCC1)c1cccs1", "% Inhibition": -3, "Z score": 0.52},
      {"smiles": "C[C@@H](c1cccc(C(F)(F)F)c1)N(CC(=O)N1CCN(S(C)(=O)=O)CC1)C1CC1", "% Inhibition": 4, "Z score": -0.39},
      {"smiles": "C[C@H]1Cc2ccccc2N1C(=O)CC1(N)CCC1", "% Inhibition": -1, "Z score": 0.18},
      {"smiles": "CN(CCc1noc(COc2cccc(Cl)c2)n1)C(=O)c1ccccc1C(F)(F)F", "% Inhibition": -17, "Z score": 1.74},
      {"smiles": "CCCC(=O)N1CCN(c2c(C)n(-c3ccccc3)c(=O)n(C)c2=O)CC1", "% Inhibition": 37, "Z score": -0.99},
      {"smiles": "CCCN1CCC(CC(=O)N[C@@H](C)c2ccc(C)nc2)CC1", "% Inhibition": -10, "Z score": 1.66},
      {"smiles": "CC(C)c1nsc(NCCc2ccc[nH]2)n1", "% Inhibition": -15, "Z score": 2.04},
      {"smiles": "Cc1nc([C@H](C)NC(=O)N2CCCCCC2)cs1", "% Inhibition": 2, "Z score": -0.33},
      {"smiles": "CS(=O)(=O)N1CCC[C@H]1C(=O)N1CCc2[nH]c3c(Cl)cccc3c2C1", "% Inhibition": -16, "Z score": 2.67},
      {"smiles": "C[C@@H]1CN(C(=O)CCN2CCCC2=O)C[C@]1(C)O", "% Inhibition": -10, "Z score": 1.68},
      {"smiles": "COc1cc(C(=O)NCCc2nncn2C(C)C)cc(OC)c1OC", "% Inhibition": -4, "Z score": 0.41},
      {"smiles": "COCCC1CCN(C(=O)N[C@@H](C)c2cccc(OC)c2)CC1", "% Inhibition": -8, "Z score": 1.12},
      {"smiles": "COCCS(=O)(=O)NC(=O)c1cnc(-c2cccs2)s1", "% Inhibition": 27, "Z score": -3.52},
      {"smiles": "c1ccc(-c2cnn3cccnc23)c(CN2CCOCC2)c1", "% Inhibition": -5, "Z score": 0.63},
      {"smiles": "Cc1cccc(CC2(NC(=O)c3ccc(CO)cc3)CC2)c1", "% Inhibition": -20, "Z score": 2.89},
      {"smiles": "COc1cc2c(cc1OC)CN(C(=O)COc1c[nH]c(C)cc1=O)CC2", "% Inhibition": -13, "Z score": 1.65},
      {"smiles": "CN(C)CCCN(CC1CCN(C2Cc3ccccc3C2)CC1)C(=O)C(=O)c1ccccc1", "% Inhibition": 0, "Z score": 0.04},
      {"smiles": "C=C[C@H]1OCCC[C@@H]1NC(=O)c1nn(C)c(C)c1Cl", "% Inhibition": 0, "Z score": -0.05},
      {"smiles": "CC(C)C[C@@H]1NC(=O)[C@@H](Cc2ccccc2)NC(=O)c2cccc(c2)Oc2ccc(cc2)C[C@@H](C(=O)N(C)CCO)NC1=O", "% Inhibition": 10, "Z score": -1.98},
      {"smiles": "CCOC(=O)c1sc(=S)n(C)c1NC(=O)c1ccccc1Cl", "% Inhibition": 11, "Z score": -2.16},
      {"smiles": "CCCN(CC(=O)Nc1nc(C)no1)[C@@H](C)c1ccccc1Br", "% Inhibition": 15, "Z score": -1.91},
      {"smiles": "CNC(=O)C1(N2CCC[C@H]2C(=O)NC2CC2)COC1", "% Inhibition": 1, "Z score": -0.12},
      {"smiles": "O=C(Nc1ccnn1C1CCN(Cc2cc3ccccc3o2)CC1)c1ccc2c(c1)OCO2", "% Inhibition": -2, "Z score": 0.34},
      {"smiles": "CC(C)n1cc2cc(C(=O)N3CCN(Cc4ccc5c(c4)OCO5)CC3)sc2c1", "% Inhibition": 3, "Z score": -0.61},
      {"smiles": "CC(=O)NC(C)(C)C(=O)Nc1cccc(C(F)(F)F)c1", "% Inhibition": 19, "Z score": -2.19},
      {"smiles": "c1ccc(-c2cc(-c3ccc4ccccc4n3)c3c(ccc4ccccc43)n2)nc1", "% Inhibition": 15, "Z score": -1.96},
      {"smiles": "CCN1CCc2cc(OC)c(OC)cc2C1C(C)NC(=O)c1cccc(Cl)c1", "note": "(centres undefined)", "% Inhibition": 3, "Z score": -0.49},
      {"smiles": "CCCNc1ncnc2[nH]c(=O)c(NC(=O)c3ccc(OC)c(OC)c3)cc12", "% Inhibition": 18, "Z score": -2.39},
      {"smiles": "COCC1(CNC(=O)c2cc(Cl)cn2C)CC1", "% Inhibition": 1, "Z score": -0.21},
      {"smiles": "CC(=O)N1CC[C@H](Nc2cccc(F)c2C#N)c2ccc(F)cc2C1", "% Inhibition": -13, "Z score": 1.99},
      {"smiles": "CN(CCN1CCCC1)c1cccc(C#N)n1", "% Inhibition": -4, "Z score": 0.45}
    ]}
  ]
}
